# In PubChem BioAssay (NCATS):
# Inconclusive means that the source gave no clear call. Such entries were picked first, then a sample of the others. For some assays here: No potency is given beside an inconclusive call; the fits are too rough. Calls of active or inactive are those of the source. Unless noted, the call rests on the fitted dose curve; in most records, active means well fitted curve in the direction sought with a large enough effect; inconclusive means small, poorly fitted or top-dose-only effect, or another doubt; inactive means no such curve, though single readings can be large; an effect the other way counts as inactive or inconclusive.
# Tests used:
# Furin (Homo sapiens) = Furin (Homo sapiens) (UniProt P09958); assay: Furin counterscreen qHTS for Zika virus inhibitors (AID 1347149); conditions: furin enzymatic counterscreen, fluorogenic substrate; activity change, negative = inhibition: at 57.5 µM (top of the series); further: potency means the concentration at half of the fitted maximal effect; nearly all actives have a fitted effect of over 70% in size
# Method in brief: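 Fluorogenic cleavage of BOC-RVRR-AMC (2 microM final, Km ~15 µM) was monitored (ex 340, em 450 nm) at 37C after 15 min RT preincubation of 5 nM furin with compounds in HEPES pH 7.0 buffer with CaCl2 and Triton X-100. Percent inhibition was fitted to a 4-parameter Hill curve.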
# [1] = system: Zika virus NS2B-NS3 protease (unlinked complex); assay: Confirmatory screen GU AMC qHTS for Zika virus inhibitors (AID 1347153);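 further: enzyme at 25 nM with substrate at 10 µM below its Km of 18.3 µM; potency means the concentration at half of the fitted maximal effect; nearly all actives have a fitted effect of over 70% in size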
# Method in brief: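 Noncovalent NS2B hydrophilic domain/NS3 protease complex (25 nM) in 10 mM Tris-HCl pH 8.0, 0.01% Tween 20 was preincubated 15 min at room temperature with compounds. Then 10 µM AMC substrate (Km 18.3 µM) was added; fluorescence was read over 15 min and fitted to a 4-parameter Hill equation.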
# [2] = qHTS of pediatric cancer cell lines to identify multiple opportunities for drug repurposing: Primary screen for TC32 cells (AID 1347089); further: on the % scale 0 is the no-effect control and ±100 the full control effect; nearly all actives have a fitted effect of over 60% in size
# Method in brief: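 qHTS, TC32, 48 h drug treatment, CellTiter-Glo luminescence as a proxy for metabolically active cells; primary top concentration 46 µM (MIPE 11-pt, NPC 8-pt); confirmatory 11-pt.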
# [3] = qHTS to identify inhibitors of the type 1 interferon - major histocompatibility complex class I in skeletal muscle: primary screen against the NCATS Pharmaceutical Collection (AID 1347407); conditions: human skeletal muscle cells, IFN-b-induced MHC-I HiBiT luminescence, 24 h; activity change, negative = inhibition: at 45.9 µM (top of the series);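 further: luminescence of HiBiT knocked into endogenous HLA-B as interferon-induced MHC class I level; on the % scale 0 is the no-effect control and ±100 the full control effect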
# Method in brief: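 Luminescence from HiBiT-tagged endogenous HLA-B*08:01 served as the read-out of IFN-beta-induced MHC class I in CRISPR-engineered C25cl48 myoblasts. Cells received 4 ng/ml IFN-beta plus compound (high final 46 uM, […]) for 24 h.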
# [4] = qHTS for differential inhibitors of proliferation of Plasmodium falciparum line 7G8 (AID 1815);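 further: parasite growth measured after three days of incubation; plate controls were vehicle wells for no effect and reference inhibitor wells for full effect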
# [5] = qHTS for differential inhibitors of proliferation of Plasmodium falciparum line HB3 (AID 1886); conditions: Potency: Plasmodium falciparum HB3 proliferation inhibition;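 further: potency means the concentration at half of the fitted maximal effect; parasites grown with compound for 72 h before SYBR Green readout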
# [6] = system: Zika virus NS2B-NS3 protease; assay: Primary screen GU AMC qHTS for Zika virus inhibitors (AID 1347154);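 further: 0% = no-inhibitor control and -100% = no-enzyme control; nearly all actives have a fitted effect of over 70% in size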
# Method in brief: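 Unlinked Zika NS2B hydrophilic domain/NS3 protease domain noncovalent complex (25 nM final) in 10 mM Tris-HCl pH 8.0, 0.01% Tween 20, with AMC peptide substrate. Fluorescence (ex 340, em 450 nm) change over 15 min, room temperature; percent inhibition fitted to 4-parameter Hill equation.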
# [7] = molecular target: Lysine-specific demethylase 5B (Homo sapiens) (UniProt Q9UGL1); assay: Optimization screen for KDM5B Histone Demethylases FDH coupled qHTS against the LOPAC library (AID 1347166); further: 0% is about no effect
# Method in brief: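 KDM5BDeltaAP (200nM final) preincubated 10 min with compound, then 12.5uM H3K4Me3, 25uM a-ketoglutarate, ascorbate, Fe(II), NAD+ and FDH added; 50mM HEPES pH 7.5, 0.01% Tween-20. NADH fluorescence (340/450 nm) change over 30 min, room temperature.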
# [8] = molecular target: Rap guanine nucleotide exchange factor 4 (Homo sapiens) (UniProt Q8WZA2); assay: Confirmatory qHTS for antagonist of cAMP-regulated guanine nucleotide exchange factor 4 (EPAC2) (AID 1645885); conditions: EPAC2 Rap1B-BODIPY-GDP exchange fluorescence, biochemical; further: potency means the concentration at half of the fitted maximal effect; nearly all actives have a fitted effect of over 25% in size
# [9] = Cellular Toxicity (caspase-3) Jurkat (AID 655); conditions: Jurkat caspase-3 activation, luminescence, DMSO = 0%, tamoxifen = 100%; at 92.2 µM (top of the series);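 further: cells exposed to compound for 16 h at 37 °C before reading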
# Method in brief: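 5000 Jurkat cells/well; compound 16 hr, 37 °C; Caspase-Glo 3/7 added, 20 min RT; luminescence read. Norm: DMSO = 0%, tamoxifen 100 uM = 100%. AC50, Hill model.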
# [10] = Cellular Toxicity (caspase-3) Hek293 (AID 664); conditions: HEK293 caspase-3 activation, DMSO = 0%, 100 µM tamoxifen = 100%; at 92.2 µM (top of the series);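 further: cells exposed to compound for 16 h at 37 °C before readout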
# Method in brief: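 HEK293 cells were exposed to compounds in complete medium for 16 hr at 37 °C, then caspase-3/7 activity was read by Caspase-Glo 3/7 luminescence after 20 min at room temperature. Data normalized to DMSO and 100 uM tamoxifen; AC50 from Hill fits.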
# [11] = Cell Viability - LYMP2-009 (AID 968); further: potency means the concentration at half of the fitted maximal effect; nearly all actives have a fitted effect of over 55% in size
# [12] = Cell Viability - LYMP2-017 (AID 972); conditions: LYMP2-017 lymphoblastoid cell viability; further: potency means the concentration at half of the fitted maximal effect; nearly all actives have a fitted effect of over 55% in size
# Method in brief: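 Human lymphoblastoid cells (2500/well) were seeded in complete medium, held 5 hr at 37 C, then exposed to compounds for 24 hr at 37 C. Intracellular ATP was read by CellTiter-Glo luminescence after 30 min at room temperature, with AC50 values from Hill-equation fits.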
# [13] = Cell Viability - LYMP2-021 (AID 974);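 further: potency means the concentration at half of the fitted maximal effect; compound exposure lasts 24 hours at 37 °C; nearly all actives have a fitted effect of over 55% in size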
# Method in brief: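 Human lymphoblastoid cells (2500/well) were preincubated 5 hr at 37 C, then exposed to compounds for 24 hr at 37 C in complete medium. Intracellular ATP was read by CellTiter-Glo luminescence; AC50 came from Hill-equation fits of concentration-response data.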
# [14] = Cell Viability - LYMP2-008 (AID 980); further: potency means the concentration at half of the fitted maximal effect; nearly all actives have a fitted effect of over 60% in size
# Method in brief: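 Human lymphoblastoid cells (2500/well) were plated, held 5 hr at 37 C, then exposed to compounds for 24 hr at 37 C in complete medium. Intracellular ATP was read by CellTiter-Glo luminescence; AC50 from Hill-fitted concentration-response.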
# [15] = Cell Viability - LYMP2-022 (AID 987); conditions: LYMP2-022 lymphoblastoid cell viability; further: potency means the concentration at half of the fitted maximal effect; nearly all actives have a fitted effect of over 55% in size
# Method in brief: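 Human lymphoblastoid cells, 2500/well, preincubated 5 hr at 37 C, then exposed to compounds over a concentration range for 24 hr at 37 C in complete medium. Viability read as intracellular ATP by CellTiter-Glo luminescence after 30 min at room temperature; AC50 from Hill fits.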
# [16] = molecular target: Vitamin D3 receptor (Homo sapiens) (UniProt P11473); assay: qHTS assay for small molecule antagonists of vitamin D receptor signaling (AID 588541; calls by dose curve;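 further: receptor activated by calcitriol during compound treatment; on the % scale 0 is the no-effect control and ±100 the full control effect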); conditions: HEK293T VDR-UAS-bla, beta-lactamase ratio, antagonist mode; activity change, negative = inhibition: at 76.7 µM (top of the series)
# [17] = molecular target: Nuclear receptor ROR-gamma (Homo sapiens) (UniProt P51449); assay: qHTS assay for small molecule antagonists of the retinoid-related orphan receptor gamma (ROR-gamma) signaling pathway (AID 651802); further: potency means the concentration at half of the fitted maximal effect; nearly all actives have a fitted effect of over 60% in size
# Method in brief: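 CHO cells carrying TET-inducible ROR-gamma and an ROR response element–luciferase reporter were exposed to compound, then induced with doxycycline. After 16hr at 37C, luminescence was read; lower signal indicates antagonism.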
# [18] = molecular target: Cytochrome P450 3A4 (Homo sapiens) (UniProt P08684); assay: qHTS for inhibitors of CYP3A4 against the NCATS DSHEA and TCM libraries (AID 1919971); further: potency means the concentration at half of the fitted maximal effect
# Method in brief: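 Luminescent P450-Glo readout. Enzyme plus pro-luciferin substrate in manufacturer buffer (typically 100 mM KPO4); 15 min RT preincubation; 1x NADPH regenerating system, 30-45 min RT in the dark; detection reagent 30 min.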
# [19] = molecular target: Cytochrome P450 2D6 (Homo sapiens) (UniProt P10635); assay: qHTS for inhibitors of CYP2D6 against the NCATS DSHEA and TCM libraries (AID 1919972); further: on the % scale 0 is the no-effect control and ±100 the full control effect
# Method in brief: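 Steps: enzyme plus luciferin substrate dispensed; test substances pinned; 15 min RT; 1x NADPH regenerating solution added, 30–45 min RT protected from light; detection reagent, 30 min RT; luminescence measured. Minus-enzyme wells as background.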
# Tags describe the fitted curve by direction and shape.
# Chain of UniProt Q8WZA2 (Q8WZA2 whole entry, looked up): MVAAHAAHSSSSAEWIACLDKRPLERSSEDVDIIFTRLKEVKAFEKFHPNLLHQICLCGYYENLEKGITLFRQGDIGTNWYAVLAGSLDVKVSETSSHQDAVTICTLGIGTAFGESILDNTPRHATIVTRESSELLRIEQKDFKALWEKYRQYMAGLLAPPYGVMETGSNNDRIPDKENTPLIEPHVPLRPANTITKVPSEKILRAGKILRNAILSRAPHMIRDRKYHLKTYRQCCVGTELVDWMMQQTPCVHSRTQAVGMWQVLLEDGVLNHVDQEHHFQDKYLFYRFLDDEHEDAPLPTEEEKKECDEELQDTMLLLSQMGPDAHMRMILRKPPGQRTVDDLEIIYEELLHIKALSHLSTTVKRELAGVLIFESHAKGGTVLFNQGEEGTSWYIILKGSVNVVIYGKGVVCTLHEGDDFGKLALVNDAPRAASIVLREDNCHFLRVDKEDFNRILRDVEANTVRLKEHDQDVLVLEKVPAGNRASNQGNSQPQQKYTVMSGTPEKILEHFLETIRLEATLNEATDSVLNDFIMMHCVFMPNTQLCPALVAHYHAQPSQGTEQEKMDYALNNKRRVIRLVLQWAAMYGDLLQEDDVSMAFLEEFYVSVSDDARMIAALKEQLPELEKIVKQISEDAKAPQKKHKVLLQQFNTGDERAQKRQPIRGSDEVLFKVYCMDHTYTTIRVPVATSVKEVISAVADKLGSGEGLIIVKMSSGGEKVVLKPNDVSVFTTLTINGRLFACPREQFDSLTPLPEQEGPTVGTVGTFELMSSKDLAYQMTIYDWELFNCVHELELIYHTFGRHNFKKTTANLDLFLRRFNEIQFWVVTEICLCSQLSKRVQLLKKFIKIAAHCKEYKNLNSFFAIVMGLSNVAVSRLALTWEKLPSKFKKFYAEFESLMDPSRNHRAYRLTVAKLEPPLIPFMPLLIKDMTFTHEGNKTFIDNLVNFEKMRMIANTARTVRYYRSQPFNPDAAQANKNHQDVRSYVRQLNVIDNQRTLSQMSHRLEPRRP
# Chain of UniProt Q9UGL1 (Q9UGL1 whole entry, looked up): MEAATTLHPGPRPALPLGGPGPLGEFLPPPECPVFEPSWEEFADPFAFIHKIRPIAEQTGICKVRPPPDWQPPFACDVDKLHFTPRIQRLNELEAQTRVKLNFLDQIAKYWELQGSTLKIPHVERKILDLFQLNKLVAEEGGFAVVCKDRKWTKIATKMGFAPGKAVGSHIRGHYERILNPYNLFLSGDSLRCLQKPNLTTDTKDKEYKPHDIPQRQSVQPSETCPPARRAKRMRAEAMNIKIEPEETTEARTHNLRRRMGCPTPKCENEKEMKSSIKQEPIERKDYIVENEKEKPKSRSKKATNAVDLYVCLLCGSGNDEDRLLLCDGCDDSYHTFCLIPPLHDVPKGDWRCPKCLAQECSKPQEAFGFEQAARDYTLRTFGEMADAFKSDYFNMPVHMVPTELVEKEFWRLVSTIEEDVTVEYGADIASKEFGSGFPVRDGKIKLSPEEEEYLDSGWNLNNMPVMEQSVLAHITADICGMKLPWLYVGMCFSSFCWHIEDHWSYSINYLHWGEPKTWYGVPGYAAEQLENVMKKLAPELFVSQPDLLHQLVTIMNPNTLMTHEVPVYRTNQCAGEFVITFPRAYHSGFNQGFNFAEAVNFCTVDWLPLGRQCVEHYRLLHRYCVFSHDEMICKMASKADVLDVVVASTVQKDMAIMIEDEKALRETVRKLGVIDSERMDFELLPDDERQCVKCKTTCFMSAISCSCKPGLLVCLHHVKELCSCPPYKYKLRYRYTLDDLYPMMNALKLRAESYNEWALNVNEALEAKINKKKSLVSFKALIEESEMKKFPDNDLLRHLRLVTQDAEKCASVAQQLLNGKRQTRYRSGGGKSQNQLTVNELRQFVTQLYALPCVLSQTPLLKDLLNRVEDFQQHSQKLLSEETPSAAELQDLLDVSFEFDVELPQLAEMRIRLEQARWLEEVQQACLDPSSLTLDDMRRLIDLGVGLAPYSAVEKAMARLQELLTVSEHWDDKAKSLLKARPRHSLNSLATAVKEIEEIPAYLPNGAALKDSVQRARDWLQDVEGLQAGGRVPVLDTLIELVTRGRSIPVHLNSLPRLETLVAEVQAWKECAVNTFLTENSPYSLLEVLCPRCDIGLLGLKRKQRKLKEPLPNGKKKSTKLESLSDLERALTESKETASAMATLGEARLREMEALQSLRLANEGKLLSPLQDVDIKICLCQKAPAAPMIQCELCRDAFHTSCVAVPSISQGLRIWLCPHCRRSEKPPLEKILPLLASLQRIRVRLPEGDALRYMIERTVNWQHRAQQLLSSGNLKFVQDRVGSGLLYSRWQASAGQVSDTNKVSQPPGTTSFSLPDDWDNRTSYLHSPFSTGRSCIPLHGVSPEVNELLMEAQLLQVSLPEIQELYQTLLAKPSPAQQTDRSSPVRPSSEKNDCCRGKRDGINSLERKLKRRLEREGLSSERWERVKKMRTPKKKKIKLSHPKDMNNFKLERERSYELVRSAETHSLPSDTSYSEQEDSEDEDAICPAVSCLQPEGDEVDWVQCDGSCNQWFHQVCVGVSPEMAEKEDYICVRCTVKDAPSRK
# Chain of UniProt P10635 (P10635 whole entry, looked up): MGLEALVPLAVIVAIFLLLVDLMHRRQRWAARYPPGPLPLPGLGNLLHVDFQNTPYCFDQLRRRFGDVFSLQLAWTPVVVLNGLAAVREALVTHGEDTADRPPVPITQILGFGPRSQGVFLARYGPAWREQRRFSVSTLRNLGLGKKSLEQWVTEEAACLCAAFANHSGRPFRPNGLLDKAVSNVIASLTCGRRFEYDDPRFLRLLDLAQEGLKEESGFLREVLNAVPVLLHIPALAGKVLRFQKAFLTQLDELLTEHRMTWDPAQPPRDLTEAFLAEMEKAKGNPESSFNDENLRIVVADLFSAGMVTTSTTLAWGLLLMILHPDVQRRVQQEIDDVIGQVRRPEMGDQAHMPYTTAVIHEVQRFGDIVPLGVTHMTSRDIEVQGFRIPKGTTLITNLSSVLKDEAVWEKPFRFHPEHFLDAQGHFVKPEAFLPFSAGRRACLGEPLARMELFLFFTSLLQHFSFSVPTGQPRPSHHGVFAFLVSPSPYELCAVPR
# Chain of UniProt P08684 (P08684 whole entry, looked up): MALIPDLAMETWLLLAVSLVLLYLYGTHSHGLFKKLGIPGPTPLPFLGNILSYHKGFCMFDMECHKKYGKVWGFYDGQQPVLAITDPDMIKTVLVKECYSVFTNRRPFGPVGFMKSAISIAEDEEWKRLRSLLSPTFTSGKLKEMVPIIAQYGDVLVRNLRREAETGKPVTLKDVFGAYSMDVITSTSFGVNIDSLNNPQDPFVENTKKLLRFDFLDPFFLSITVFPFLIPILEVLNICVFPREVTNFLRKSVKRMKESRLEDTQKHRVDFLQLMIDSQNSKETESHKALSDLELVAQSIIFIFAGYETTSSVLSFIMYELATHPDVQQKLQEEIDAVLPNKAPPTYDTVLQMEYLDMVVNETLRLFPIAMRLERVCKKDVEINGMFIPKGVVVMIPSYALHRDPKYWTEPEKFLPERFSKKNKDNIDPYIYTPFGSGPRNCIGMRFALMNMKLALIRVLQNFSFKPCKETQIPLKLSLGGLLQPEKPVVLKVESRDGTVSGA
# Chain of UniProt P51449 (P51449 whole entry, looked up): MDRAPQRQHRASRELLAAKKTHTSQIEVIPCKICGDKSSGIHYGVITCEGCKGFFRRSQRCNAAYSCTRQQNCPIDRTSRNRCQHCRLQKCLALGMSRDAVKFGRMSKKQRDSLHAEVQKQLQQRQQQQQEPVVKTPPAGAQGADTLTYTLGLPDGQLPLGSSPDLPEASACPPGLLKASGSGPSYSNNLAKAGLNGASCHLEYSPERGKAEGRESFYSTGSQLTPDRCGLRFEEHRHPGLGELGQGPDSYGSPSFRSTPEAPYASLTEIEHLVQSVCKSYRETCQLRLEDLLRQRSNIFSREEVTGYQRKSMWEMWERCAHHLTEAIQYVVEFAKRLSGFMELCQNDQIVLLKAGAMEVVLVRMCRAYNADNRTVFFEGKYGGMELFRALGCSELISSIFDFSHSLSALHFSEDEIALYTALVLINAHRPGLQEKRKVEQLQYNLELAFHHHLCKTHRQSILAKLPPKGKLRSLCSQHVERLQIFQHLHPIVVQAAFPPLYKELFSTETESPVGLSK
# Chain of UniProt P09958 (P09958 whole entry, looked up): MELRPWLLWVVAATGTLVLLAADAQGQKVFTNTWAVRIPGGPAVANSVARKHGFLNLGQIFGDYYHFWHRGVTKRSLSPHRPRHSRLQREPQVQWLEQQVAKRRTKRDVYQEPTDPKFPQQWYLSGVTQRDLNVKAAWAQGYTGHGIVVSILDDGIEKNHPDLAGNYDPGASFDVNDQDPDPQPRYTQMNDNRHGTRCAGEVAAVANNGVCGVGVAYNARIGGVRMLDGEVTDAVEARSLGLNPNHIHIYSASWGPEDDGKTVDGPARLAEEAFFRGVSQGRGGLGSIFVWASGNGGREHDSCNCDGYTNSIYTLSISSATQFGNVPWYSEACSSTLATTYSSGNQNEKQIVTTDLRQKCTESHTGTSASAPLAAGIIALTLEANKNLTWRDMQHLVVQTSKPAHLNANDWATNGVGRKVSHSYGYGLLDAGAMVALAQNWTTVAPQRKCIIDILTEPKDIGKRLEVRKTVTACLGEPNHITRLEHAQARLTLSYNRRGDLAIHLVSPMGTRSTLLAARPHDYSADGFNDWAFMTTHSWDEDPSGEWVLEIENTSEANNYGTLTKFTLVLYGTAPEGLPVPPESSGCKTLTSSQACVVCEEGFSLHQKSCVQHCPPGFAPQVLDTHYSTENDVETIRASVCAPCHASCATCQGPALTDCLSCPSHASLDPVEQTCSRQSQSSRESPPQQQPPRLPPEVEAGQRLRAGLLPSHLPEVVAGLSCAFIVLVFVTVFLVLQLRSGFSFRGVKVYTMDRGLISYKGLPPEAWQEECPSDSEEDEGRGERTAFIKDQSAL
structure (smiles),measurement,setting,value
O=C1NC(=O)/C(=C/c2cccc(C(F)(F)F)c2)S1,Potency,Furin (Homo sapiens),"inconclusive [inhibitor, partial curve]"
same,Potency,[1],"inconclusive [inhibitor, full curve]"
Cc1nc2n(c(=O)c1CCN1CCC(c3noc4cc(F)ccc34)CC1)CCC[C@H]2O,Potency,[2],inactive
same,Potency,[3],inactive
N[C@H](CO)C(=O)O,Potency,[4],inactive
same,Potency,[5],"inconclusive [inhibitor, single point]"
same,Potency,[6],inactive
same,Potency,[7],inactive
C#C[C@]1(OC(C)=O)CC[C@H]2[C@@H]3CCC4=CC(=O)CC[C@@H]4[C@H]3CC[C@@]21C,Potency,[8],"inconclusive [inhibitor, partial curve]"
CC1=C(/C=C/C(C)=C/C=C/C(C)=C/CO)C(C)(C)CCC1,caspase-3 activation,[9],inconclusive: 60.6%
same,caspase-3 activation,[10],inconclusive: 38.2%
same,Potency,[11],"inconclusive [cytotoxic, partial curve]"
same,Potency,[12],"inconclusive [cytotoxic, partial curve, poor fit]"
same,Potency,[13],"inconclusive [cytotoxic, partial curve]"
same,Potency,[14],"inconclusive [cytotoxic, partial curve]"
same,Potency,[15],active: 39.8 µM
same,"activity change, negative = inhibition",[16],inconclusive: 11.2%
same,Potency,[17],"inconclusive [inhibitor, partial curve, poor fit]"
same,Potency,[18],"inconclusive [inhibitor, partial curve]"
same,Potency,[19],inactive
